In the supplement of paper PMC4967469:
Lines with a small IC50 respond at low doses; a fit beyond the top or the lowest dose is shown as a bound at that dose. AUC, from the same fit, is the share of area under the viability curve across the 256-fold dose range; the more sensitive the line, the further below 1. For some of these results: The top dose, if marked as inferred, comes from the curve model; the source does not state it. For some of these results: Where an entry number is given, a second screen of the drug exists; the two often differ.

What was measured:
Test in all cases: Viability of human cancer cell lines after 72 h of drug (GDSC screen)
VNLG/124 = compound: CCCC(=O)OCc1ccc(OC(=O)/C=C(C)/C=C/C=C(C)/C=C/C2=C(C)CCCC2(C)C)cc1 [VNLG/124]; settings: top dose 5.12 µM; top dose inferred
Method: (§1)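 Human cancer cell lines in 384-well plates, medium with 10% serum, drug for 72 h over a 256-fold dose range (nine 2-fold or five 4-fold steps up to the top dose). Adherent lines were fixed and stained with the nucleic acid dye Syto60, suspension lines read with resazurin; signal relative to control wells, capped at 0 and 100%. One two-parameter sigmoid per drug and line, fitted in a mixed model over all curves with the slope shared within a line.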

NSC-87877 = compound: O=S(=O)(O)c1ccc2cc(N=Nc3cc(S(=O)(=O)O)c4cccnc4c3O)ccc2c1 [NSC-87877]; settings: top dose 16 µM; top dose inferred
Method: as §1

BX-912 = compound: O=C(Nc1cccc(Nc2ncc(Br)c(NCCc3cnc[nH]3)n2)c1)N1CCCC1 [BX-912]; settings: top dose 10.24 µM; top dose inferred
Method: as §1

OSI-930 = compound: O=C(Nc1ccc(OC(F)(F)F)cc1)c1sccc1NCc1ccnc2ccccc12 [OSI-930]; settings: top dose 10.24 µM
Method: as §1

Masitinib = compound: Cc1ccc(NC(=O)c2ccc(CN3CCN(C)CC3)cc2)cc1Nc1nc(-c2cccnc2)cs1 [Masitinib]; settings: top dose 20 µM
Method: as §1

Bleomycin = compound: Cc1c(N)nc([C@H](CC(N)=O)NC[C@H](N)C(N)=O)nc1C(=O)N[C@H](C(=O)N[C@H](C)[C@@H](O)[C@H](C)C(=O)N[C@H](C(=O)NCCc1nc(-c2nc(C(=O)NCCC[S+](C)C)cs2)cs1)[C@@H](C)O)[C@@H](OC1OC(CO)C(O)C(O)C1OC1OC(CO)C(O)C(OC(N)=O)C1O)c1cnc[nH]1 [Bleomycin]
Method: as §1

Elesclomol = compound: CN(NC(=O)CC(=O)NN(C)C(=S)c1ccccc1)C(=S)c1ccccc1 [Elesclomol]; settings: top dose 0.2 µM; top dose inferred
Method: as §1

Tamoxifen = compound: CC/C(=C(\c1ccccc1)c1ccc(OCCN(C)C)cc1)c1ccccc1 [Tamoxifen]; settings: top dose 5 µM
Method: as §1

LAQ824 = compound: O=C(/C=C/c1ccc(CN(CCO)CCc2c[nH]c3ccccc23)cc1)NO [LAQ824]; settings: top dose 1.024 µM; top dose inferred
Method: as §1

[1] = top dose 50 µM, screen: GDSC drug entry 1378, top dose inferred
[2] = top dose 64 µM, screen: GDSC drug entry 190

| Cell Line | AUC (VNLG/124) | IC50 (VNLG/124) [µM] | AUC (NSC-87877) | IC50 (NSC-87877) [µM] | AUC (BX-912) | IC50 (BX-912) [nM] | AUC (OSI-930) | IC50 (OSI-930) [µM] | AUC (Masitinib) | IC50 (Masitinib) [µM] | AUC (Bleomycin; [1]) | IC50 (Bleomycin; [1]) [µM] | AUC (Bleomycin; [2]) | IC50 (Bleomycin; [2]) [µM] | AUC (Elesclomol) | IC50 (Elesclomol) [nM] | AUC (Tamoxifen) | IC50 (Tamoxifen) [µM] | AUC (LAQ824) | IC50 (LAQ824) [nM] |
| --- | --- | --- | --- | --- | --- | --- | --- | --- | --- | --- | --- | --- | --- | --- | --- | --- | --- | --- | --- | --- |
| SKN-3 (head and neck, adherent) | 0.957 | > 5.12 | 0.983 | > 16 | 0.971 | > 10200 | 0.981 | > 10.2 | 0.921 | > 20 | 0.213 | 0.375 | 0.753 | 24.9 | 0.794 | 112 | 0.961 | > 5 | 0.542 | 85.3 |
| H2373 (mesothelioma, adherent) | 0.97 | > 5.12 | 0.919 | > 16 | 0.982 | > 10200 | 0.98 | > 10.2 | 0.983 | > 20 | 0.529 | 3.82 | 0.428 | 2.41 | 0.677 | 44.5 | 0.981 | > 5 | 0.555 | 93.9 |
| MZ2-MEL (melanoma, adherent) | 0.975 | > 5.12 | 0.983 | > 16 | 0.897 | > 10200 | 0.902 | > 10.2 | 0.705 | 5.28 | 0.829 | 38.5 | 0.458 | 3 | 0.522 | 14.5 | 0.97 | > 5 | 0.466 | 50.7 |
| PCI-15A (head and neck, adherent) | 0.987 | > 5.12 | 0.829 | 10.1 | 0.924 | > 10200 | 0.985 | > 10.2 | 0.898 | > 20 | 0.149 | 0.252 | 0.341 | 1.44 | 0.987 | > 200 | 0.986 | > 5 | 0.444 | 45 |
| G-292 Clone A141B1 (osteosarcoma, adherent) | 0.968 | > 5.12 | 0.912 | > 16 | 0.65 | 2140 | 0.95 | > 10.2 | 0.942 | > 20 | 0.669 | 12.4 | 0.905 | > 64 | 0.748 | 102 | 0.972 | > 5 | 0.966 | > 1020 |
| JHH-7 (liver, adherent) | 0.984 | > 5.12 | 0.989 | > 16 | 0.963 | > 10200 | 0.972 | > 10.2 | 0.785 | 7.99 | 0.816 | 25.5 | 0.679 | 12.2 | 0.676 | 37.3 | 0.984 | > 5 | 0.548 | 85.9 |
| MS-1 (small cell lung carcinoma, suspension) | 0.989 | > 5.12 | 0.991 | > 16 | 0.916 | > 10200 | 0.968 | > 10.2 | 0.826 | 10.4 | 0.978 | > 50 | 0.954 | > 64 | 0.922 | > 200 | 0.99 | > 5 | 0.302 | 19.1 |
| CA46 (Burkitt lymphoma, suspension) | 0.909 | > 5.12 | 0.984 | > 16 | 0.653 | 1760 | 0.91 | > 10.2 | 0.818 | 12.3 | 0.955 | > 50 | 0.913 | > 64 | 0.907 | > 200 | 0.967 | > 5 | 0.211 | 8.37 |
| CHP-126 (neuroblastoma, suspension) | 0.987 | > 5.12 | 0.983 | > 16 |  |  | 0.973 | > 10.2 | 0.832 | 13.2 | 0.42 | 1.88 | 0.348 | 1.5 | 0.499 | 12.4 | 0.986 | > 5 | 0.327 | 20.8 |
| BV-173 (chronic myeloid leukaemia, suspension) | 0.989 | > 5.12 | 0.97 | > 16 | 0.335 | 237 | 0.773 | 3.52 | 0.284 | 0.335 | 0.324 | 1.08 | 0.897 | 63.2 | 0.578 | 19.9 | 0.961 | > 5 | 0.311 | 20.3 |
| SNU-449 (liver, adherent) | 0.969 | > 5.12 | 0.985 | > 16 | 0.975 | > 10200 | 0.963 | > 10.2 | 0.888 | > 20 | 0.544 | 4.17 | 0.233 | 0.618 | 0.533 | 15.5 | 0.975 | > 5 | 0.431 | 40.7 |
| U-698-M (B-cell leukaemia, suspension) | 0.987 | > 5.12 | 0.986 | > 16 | 0.92 | > 10200 | 0.932 | > 10.2 | 0.895 | > 20 | 0.965 | > 50 | 0.651 | 10.5 | 0.477 | 10.8 | 0.957 | > 5 | 0.567 | 97.6 |
| KASUMI-1 (acute myeloid leukaemia, suspension) |  |  | 0.984 | > 16 | 0.254 | 125 | 0.144 | 0.0494 | 0.149 | 0.101 | 0.95 | > 50 |  |  | 0.912 | > 200 | 0.948 | > 5 |  |  |
| IGR-37 (melanoma, adherent) | 0.96 | > 5.12 | 0.986 | > 16 |  |  | 0.988 | > 10.2 |  |  | 0.682 | 9.56 | 0.099 | < 0.25 | 0.65 | 31.2 | 0.988 | > 5 | 0.427 | 41.3 |
| MV-4-11 (leukaemia, suspension) | 0.622 | 0.649 | 0.983 | > 16 | 0.025 | < 40 | 0.81 | 4.23 |  |  | 0.654 | 7.66 | 0.122 | 0.352 | 0.365 | 5.72 | 0.967 | > 5 |  |  |
| KARPAS-231 (B-cell leukaemia, suspension) |  |  | 0.922 | 14.9 |  |  | 0.912 | 8.62 | 0.689 | 3.66 | 0.852 | 25.7 | 0.643 | 9.01 | 0.348 | 5.28 | 0.992 | > 5 | 0.14 | 7.32 |
| OCI-AML2 (acute myeloid leukaemia, suspension) |  |  | 0.99 | > 16 | 0.76 | 2810 | 0.932 | 9.62 | 0.919 | 16.5 | 0.69 | 9.13 | 0.403 | 2.32 | 0.994 | > 200 | 0.988 | > 5 | 0.314 | 22.5 |
| GA-10 (Burkitt lymphoma, suspension) |  |  | 0.991 | > 16 |  |  |  |  |  |  | 0.836 | 26.2 |  |  | 0.482 | 11.2 | 0.97 | > 5 |  |  |
| KP-1N (pancreas, adherent) |  |  | 0.985 | > 16 | 0.912 | > 10200 |  |  |  |  | 0.366 | 1.31 | 0.592 | 7.22 | 0.64 | 31.2 | 0.983 | > 5 | 0.515 | 70.7 |
| RPMI-8226 (myeloma, suspension) | 0.942 | > 5.12 | 0.987 | > 16 | 0.928 | > 10200 | 0.965 | > 10.2 |  |  | 0.967 | > 50 | 0.976 | > 64 | 0.591 | 21.4 | 0.981 | > 5 | 0.435 | 43.5 |
| Caov-4 (ovary, adherent) |  |  | 0.98 | > 16 | 0.868 | > 10200 | 0.953 | > 10.2 | 0.896 | > 20 | 0.756 | 24.8 | 0.775 | 38.1 | 0.564 | 20.3 | 0.971 | > 5 | 0.599 | 136 |
| KM-H2 (Hodgkin lymphoma, suspension) | 0.987 | > 5.12 | 0.99 | > 16 | 0.931 | > 10200 | 0.971 | > 10.2 | 0.893 | 17.4 |  |  |  |  | 0.966 | > 200 | 0.992 | > 5 | 0.545 | 83.2 |
| EHEB (lymphoid neoplasm, suspension) |  |  | 0.963 | > 16 |  |  |  |  |  |  | 0.474 | 2.57 | 0.415 | 2.11 | 0.877 | > 200 | 0.715 | 1.7 | 0.379 | 25.5 |
| Hs746T (stomach, adherent) | 0.971 | > 5.12 | 0.967 | > 16 | 0.655 | 2010 | 0.978 | > 10.2 | 0.874 | > 20 | 0.787 | 30.5 |  |  | 0.671 | 44.4 | 0.974 | > 5 |  |  |
| LN-405 (glioma, adherent) | 0.984 | > 5.12 |  |  | 0.95 | > 10200 | 0.952 | > 10.2 | 0.896 | > 20 | 0.894 | > 50 | 0.938 | > 64 | 0.763 | 90 | 0.957 | > 5 | 0.645 | 180 |
| OACM5-1 (oesophagus, semi-adherent) | 0.97 | > 5.12 |  |  | 0.559 | 944 | 0.986 | > 10.2 | 0.855 | 19.2 | 0.966 | > 50 |  |  | 0.938 | > 200 | 0.984 | > 5 |  |  |
| RCC-MF (kidney, adherent) | 0.979 | > 5.12 |  |  | 0.9 | > 10200 | 0.962 | > 10.2 | 0.739 | 7.54 | 0.774 | 25.7 |  |  | 0.395 | 5.89 | 0.97 | > 5 |  |  |
| OCI-M1 (acute myeloid leukaemia, suspension) | 0.832 | 2.26 | 0.992 | > 16 | 0.428 | 426 | 0.992 | > 10.2 |  |  | 0.966 | > 50 | 0.834 | 28.5 | 0.991 | > 200 | 0.995 | > 5 | 0.321 | 23.2 |
| IM-9 (myeloma, suspension) |  |  | 0.962 | > 16 |  |  |  |  |  |  | 0.619 | 6.33 | 0.48 | 3.56 | 0.991 | > 200 | 0.983 | > 5 | 0.874 | 763 |
